This is an account of results in ChEMBL document CHEMBL4888484, “Replenishing the malaria drug discovery pipeline: Screening and hit evaluation of the MMV Hit Generation Library 1 (HGL1) against asexual blood stage Plasmodium falciparum ,using a nano luciferase reporter read-out” (2022).

Screen size: about 150,000 compounds; about 540 (0.36%) showed an effect of 50% or more. The list shows a part of the results.

In the assay the test system is Plasmodium falciparum. Nature of the assay: Primary screen in NF54 nanoGlo assay, in single point, at 2uM, 72h; a lower Z score goes with more inhibition. Type of assay: functional, Erythrocyte. The note with it: timepoint 72 hour.
A word on the % Inhibition: it is the drop in the measured response relative to a control, in per cent. For `O=C(CCCc1ccccc1)N1CCC(Oc2ccccn2)CC1`, the “% Inhibition” value was -5% and the Z score is given as 0.97.
On the same counts, the results for `COC(=O)Cn1cc(C(O)(c2ccccc2)c2ccccc2)nn1` are -4% and 0.53.
For `Cc1nnnn1CCC(=O)NCC1(C(C)C)CC1` the same measures were -12% and 1.64.
Regarding `O=C1CCCN1c1cc(C(=O)N2CCC[C@H]2c2nc3ccccc3s2)ccc1Cl`, the “% Inhibition” value turned out to be 10% and the Z score is -1.21.
As to `CC1(C)CC(=O)C(c2cc(NS(=O)(=O)c3ccc(Cl)cc3)c3ccccc3c2NS(=O)(=O)c2ccc(Cl)cc2)C(=O)C1`, the “% Inhibition” value was -12% and the Z score worked out at 2.06.
Turning to `CC(C)c1nccn1CC(=O)N(C)[C@@H](C)c1ccc(F)c(F)c1`, the “% Inhibition” value is reported as -1% and the Z score turned out to be 0.13.
Regarding `C[C@]1(c2nc(-c3nccc4[nH]ccc34)no2)CCNC(=O)C1`, the “% Inhibition” value was -1% and the Z score stood at 0.22.
On the same counts, the results for `Cc1cc(CN2CCC(CF)CC2)n(C)n1` are 3% and -0.32.
Turning to `O=C(c1nc2sccn2c1-c1ncc[nH]1)N1CCCC1`, the “% Inhibition” value was found to be 2% and the Z score is given as -0.22.
For `CC[C@](C)(NCCc1ccccc1)c1nnnn1-c1ccc(OC)cc1` the same measures were -2% and 0.32.
For `O=C(Nc1ccc(N2CCCN(Cc3ccc(F)cc3)C2=O)cc1)C1CCC1` the same measures were -13% and 2.65.
For `O=C(c1cccs1)N1CCn2nc(CN3CCC(F)(F)CC3)cc2C1` the same measures were 7% and -1.23.
As for `CCCN1C(=O)CC[C@]2(CNC(=O)c3ncoc3-c3cccc(C)c3)CCC[C@@H]12`, the “% Inhibition” value is -5% and the Z score is listed as 0.68.
On the same counts, the results for `COc1cc(OC)cc(C(=O)N2CCN(c3c(C)n(-c4ccccc4)c(=O)n(C)c3=O)CC2)c1` are -6% and 0.97.
In the case of `Cc1cccc(S(=O)(=O)CCCn2ccc3ccn(C)c3c2=O)c1`, the “% Inhibition” value is reported as -14% and the Z score was determined as 1.27.
For the compound `COCCn1nnc2c1CCN(C[C@H]1CCC3(COC3)O1)C2`, the “% Inhibition” value was -2% and the Z score is recorded as 0.4.
On the same counts, the results for `O=C(O)[C@]12CCCN(Cc3cccs3)[C@@H]1CCN(c1cnccn1)C2` are 3% and -0.28.
For the compound `CCc1cnc(CCNC(=O)Nc2cccn(C)c2=O)s1`, the “% Inhibition” value was -4% and the Z score was determined as 0.49.
`O=C(C1c2ccccc2Oc2ccccc21)N1CCC(n2ccnn2)CC1`: the “% Inhibition” value is given as -12% and the Z score turned out to be 1.34.
As for `CN(C)c1ccccc1CNc1cnc2c(c1)COCC2`, the “% Inhibition” value stood at 7% and the Z score is listed as -1.03.
For `COc1cccc(CNC(=O)c2ccc(S(=O)(=O)N3CCCCCC3)s2)c1` the same measures were -13% and 1.8.
Take `CN(Cc1cscn1)C(=O)NCC1(c2ccccc2)CC1`: the “% Inhibition” value worked out at 3% and the Z score is -0.38.
For `Cc1n[nH]c(C)c1CNC(=O)N1CCc2c(F)cc(F)cc2C1` the same measures were 24% and -2.71.
On the same counts, the results for `C[C@@H](Cc1cccs1)NC(=O)c1cc(-c2ccccc2)on1` are -2% and 0.25.
Regarding `Cc1[nH]nc(-c2ccc3c(c2)OCO3)c1NC(=O)c1ccccc1F`, the “% Inhibition” value was -2% and the Z score was 0.22.
With `Cc1nn(C)c(N2CCC2)c1NC(=O)c1nccc2occc12`, the “% Inhibition” value was -5% and the Z score came to 0.97.
With `CCO[C@H]1CC(NCCc2ccncc2C)[C@@]12CCCO2` (stereo partly specified), the “% Inhibition” value is -4% and the Z score worked out at 0.65.
For `CCn1cc(OCc2sc(C)nc2C(F)(F)F)cn1`, the “% Inhibition” value amounted to 6% and the Z score is listed as -0.8.
For `C[C@@H](CNC(=O)c1c[nH]c2cccc(Br)c12)CN1CCCC1=O` the same measures were -9% and 0.99.
On to `Cc1ccccc1COc1ccccc1CN1C[C@@H]2[C@H](C1)[C@H]2C(=O)O`, for which the “% Inhibition” value was -16% and the Z score is 3.16.
Consider `Cn1cccc1[C@@H](O)CNC(=O)C(=O)NCc1ccc(F)cc1`, for which the “% Inhibition” value is -12% and the Z score amounted to 2.08.
As to `Cc1ccc(NC(=O)N[C@H]2CC(=O)N(c3ccc4c(c3)OCCO4)C2)c(C)c1`, the “% Inhibition” value was 9% and the Z score is -1.25.
Turning to `CN(Cc1nnc[nH]1)C1CN(C(=O)OCc2ccccc2)C[C@H]1O` (stereo partly specified), the “% Inhibition” value is on record as 4% and the Z score was -0.56.
For `CCC(=O)N1CCCCN(C)C(=O)[C@H](C)NC(=O)COc2ccc(cc2OC)C(=O)NCCC1` the same measures were -13% and 1.63.
For `CCN1CCN(C(=O)C2C3C(=O)N(Cc4ccc(C)c(C)c4)C[C@@]34C=C[C@@H]2O4)CC1=O` (stereo partly specified), the “% Inhibition” value is recorded as -4% and the Z score was found to be 0.81.
On the same counts, the results for `CC(C)CS(=O)(=O)CCNc1ncncn1` are -5% and 0.42.
For `Cc1n[nH]c([C@H]2CCO[C@H]2CN(C)C(=O)c2sc(C)nc2C)n1`, the “% Inhibition” value is -8% and the Z score was found to be 1.66.
On the same counts, the results for `CCN1c2cc(C(=O)Nc3ccccc3OC)ccc2C(=O)N2CCCCC[C@H]21` are 1% and -0.11.
Consider `CCc1cnc(C)nc1N1CCC(N2CCC[C@H](C(=O)NC3CC3)C2)CC1`, for which the “% Inhibition” value was -9% and the Z score is recorded as 1.73.
On the same counts, the results for `CC(C)NS(=O)(=O)N[C@@H](C)c1csnn1` are 11% and -1.32.
For `FC(F)(F)c1cnc(NC2CCCCCCC2)c(Cl)c1` the same measures were 4% and -0.61.
With `O=C(Nc1nc(-c2cccs2)cs1)c1sc2ccccc2c1Cl`, the “% Inhibition” value is listed as 8% and the Z score is recorded as -1.04.
For `COc1ccc2c(c1)-c1onc(C(=O)N(C)C3CCCCC3)c1CC2` the same measures were -2% and 0.33.
On the same counts, the results for `Cc1cccnc1CCNCc1c(C(=O)N2C[C@@H](C)O[C@@H](C)C2)nc2ccc(Cl)cn12` are -17% and 2.59.
For `CC(=O)N1CCC(Oc2ccc(Cl)cc2C(=O)NC2Cc3ccccc3C2)CC1` the same measures were -5% and 0.67.
`O=S(=O)(c1cccs1)N1CCN(CCc2ccccn2)CC1`: the “% Inhibition” value was -4% and the Z score stood at 0.69.
For `CCOC(=O)C1CCN(Cc2cncc(-c3ccc(Cl)c(Cl)c3)c2)CC1` the same measures were -1% and 0.08.
For the compound `CCn1ccc(C(=O)N2CCC[C@@]3(CCC(=O)N(CCOC)C3)C2)cc1=O`, the “% Inhibition” value is -12% and the Z score came out at 1.62.
Regarding `Cc1ccc(NC(=O)[C@@H]2CCN(c3ccccc3Cc3ccccc3)C2=O)cc1C`, the “% Inhibition” value was -14% and the Z score amounted to 1.77.
On to `Clc1ccc2nc(N(Cc3ccccc3)c3ccccc3)nc(-c3ccccc3)c2c1`, for which the “% Inhibition” value is recorded as -3% and the Z score stood at 0.44.
For `c1ccc(C2=Nc3ccc4ccccc4c3NC(c3ccccc3)=N2)cc1` the same measures were -7% and 0.76.
On to `CCCN(CC(=O)OCC)C(=O)c1cnn(C)c1`, for which the “% Inhibition” value is on record as -3% and the Z score was found to be 0.36.
On to `CN(CC1OCCc2ccccc21)C(=O)C1CNC(=O)N1` (stereo unspecified), for which the “% Inhibition” value is given as -5% and the Z score turned out to be 1.01.
On the same counts, the results for `COc1ccccc1CC(=O)N1CC[C@H]2CN(C(C)=O)C[C@@]2(CO)C1` are 0% and 0.05.
On the same counts, the results for `O=C(c1ccco1)N1CCN(c2nnc(-c3ccccn3)s2)CC1` are -21% and 4.23.
On the same counts, the results for `C[C@H](Nc1nc(-c2ccc(N3CCCC3=O)cc2)cs1)c1ccccc1` are -7% and 0.65.
`C[C@@H](c1ccon1)N(C)C(=O)c1cc(COc2cccc3cccnc23)on1`: the “% Inhibition” value is -23% and the Z score was found to be 2.02.
On the same counts, the results for `O=c1[nH]c2ccc(NCc3cc(Cl)ccc3OCc3ccccc3F)cc2[nH]1` are 2% and -0.36.
For `Cc1ccc(S(=O)(=O)N2CCC[C@H]2c2cccs2)c(Cl)c1` the same measures were -8% and 1.04.
`O=C(NC[C@@H]1CCCN(C(=O)C2CCC2)C1)C1CCC1`: the “% Inhibition” value is recorded as -13% and the Z score amounted to 1.32.
Turning to `O=C(Nc1cc(Cl)ccc1Cl)[C@@H]1CCCN1C(=O)c1cnccn1`, the “% Inhibition” value was determined as 3% and the Z score is -0.4.
For the compound `CC(=O)N[C@H]1C[C@H]2CN(Cc3ccc4c(c3)CCO4)[C@@H](CC(C)C)C(=O)N2C1`, the “% Inhibition” value was found to be 6% and the Z score is listed as -0.91.
For `Cc1nc(-c2ccc(C)c(NC(=O)c3ccc(F)c(C)c3)c2)n[nH]1` the same measures were -4% and 0.65.
On the same counts, the results for `C[C@H]1CNCCN1C(=O)c1cc(O)nc2ccc(Br)cc12` are -11% and 1.29.
On the same counts, the results for `COc1ccc(NC(=O)Cn2ncc(-c3cccc(OC)c3)nc2=O)cc1` are 2% and -0.24.
With `Cc1ccc(S(=O)(=O)N2CCN(C(=O)c3cc(C4CC4)nc4c3c(C)nn4C)CC2)cc1`, the “% Inhibition” value is recorded as -2% and the Z score worked out at 0.2.
For `O=C(N[C@H]1COc2cc(F)cc(F)c21)c1ccoc1Br` the same measures were -11% and 1.42.
Regarding `COC(C)c1nc(CNC(C)c2cnn(C)c2C)cs1` (stereo unspecified), the “% Inhibition” value amounted to 0% and the Z score is reported as -0.07.
On the same counts, the results for `CCN(CC)c1ccc(NC(=O)c2scnc2C)cn1` are -12% and 1.92.
On the same counts, the results for `CC(C)(C)CN1CCC[C@@](O)(CNC2CCCCCC2)C1=O` are -26% and 2.29.
Turning to `COc1ccc(CNC(=O)Cn2c(C)nc3c(c2=O)CN(Cc2ccccc2)CC3)cc1`, the “% Inhibition” value is recorded as -1% and the Z score is listed as 0.12.
On the same counts, the results for `CCC1(CNC(=O)c2[nH]ncc2Cl)CCC1` are -3% and 0.52.
`c1cncc(CNCc2ccc3nccnc3c2)c1`: the “% Inhibition” value is listed as 7% and the Z score is given as -1.17.
In the case of `CC[C@]1(O)CCN(Cc2cnc(N(C)C)s2)C1`, the “% Inhibition” value was -4% and the Z score was found to be 0.39.
As for `Cn1ccc2c(-c3ccc(N4CCCC4)nn3)ccnc21`, the “% Inhibition” value is recorded as -11% and the Z score came out at 2.04.
`CC(C)C[C@H](NC(=O)OC(C)(C)C)c1nnc(S(=O)(=O)Cc2ccccc2F)o1`: the “% Inhibition” value was -11% and the Z score worked out at 0.99.
On the same counts, the results for `O=C(COc1ccc(F)cc1)N1CCc2n[nH]c(=O)n2CC1` are -15% and 2.16.
For the compound `CC(C)N1C[C@H](Oc2ccccc2)[C@@H]1C1CCN(C(=O)CC2CCN(C)CC2)CC1`, the “% Inhibition” value was -8% and the Z score stood at 0.97.
For `C#Cc1cccc(N(CC)Cc2csc(CS(C)(=O)=O)n2)c1`, the “% Inhibition” value is listed as 4% and the Z score is -0.37.
For the compound `N#Cc1ccc(CNC(=O)N2CC3CC=CCC3C2)c(F)c1` (stereo unspecified), the “% Inhibition” value is -3% and the Z score was found to be 0.61.
Turning to `Cc1ccc(C(=O)N2CCC(C)C3CCCCC32)c(=O)[nH]1` (stereo unspecified), the “% Inhibition” value is given as -8% and the Z score was found to be 1.01.
For `CC[C@@H](C(=O)N1CCN(c2cnccn2)CC1)n1cccn1` the same measures were -5% and 0.57.
For `Cc1nn(-c2cc(N3CCOCC3)ncn2)c(C)c1CCC(=O)N1CCN(CCO)CC1` the same measures were -12% and 1.61.
